# From paper PMC4336329 (PLoS ONE, 2015)
# Out of some 310,000 compounds screened, about 2,200 (0.71%) showed an effect of 50% or more. Effects have a minus sign here. Some of the results follow.
# Biological target: human ether-à-go-go-related gene (hERG) potassium channel (human, UniProt Q12809)
# Assay: primary screen, population patch clamp on CHO cells stably expressing hERG
# Chain of human ether-à-go-go-related gene (hERG) potassium channel (Q12809 whole entry, looked up): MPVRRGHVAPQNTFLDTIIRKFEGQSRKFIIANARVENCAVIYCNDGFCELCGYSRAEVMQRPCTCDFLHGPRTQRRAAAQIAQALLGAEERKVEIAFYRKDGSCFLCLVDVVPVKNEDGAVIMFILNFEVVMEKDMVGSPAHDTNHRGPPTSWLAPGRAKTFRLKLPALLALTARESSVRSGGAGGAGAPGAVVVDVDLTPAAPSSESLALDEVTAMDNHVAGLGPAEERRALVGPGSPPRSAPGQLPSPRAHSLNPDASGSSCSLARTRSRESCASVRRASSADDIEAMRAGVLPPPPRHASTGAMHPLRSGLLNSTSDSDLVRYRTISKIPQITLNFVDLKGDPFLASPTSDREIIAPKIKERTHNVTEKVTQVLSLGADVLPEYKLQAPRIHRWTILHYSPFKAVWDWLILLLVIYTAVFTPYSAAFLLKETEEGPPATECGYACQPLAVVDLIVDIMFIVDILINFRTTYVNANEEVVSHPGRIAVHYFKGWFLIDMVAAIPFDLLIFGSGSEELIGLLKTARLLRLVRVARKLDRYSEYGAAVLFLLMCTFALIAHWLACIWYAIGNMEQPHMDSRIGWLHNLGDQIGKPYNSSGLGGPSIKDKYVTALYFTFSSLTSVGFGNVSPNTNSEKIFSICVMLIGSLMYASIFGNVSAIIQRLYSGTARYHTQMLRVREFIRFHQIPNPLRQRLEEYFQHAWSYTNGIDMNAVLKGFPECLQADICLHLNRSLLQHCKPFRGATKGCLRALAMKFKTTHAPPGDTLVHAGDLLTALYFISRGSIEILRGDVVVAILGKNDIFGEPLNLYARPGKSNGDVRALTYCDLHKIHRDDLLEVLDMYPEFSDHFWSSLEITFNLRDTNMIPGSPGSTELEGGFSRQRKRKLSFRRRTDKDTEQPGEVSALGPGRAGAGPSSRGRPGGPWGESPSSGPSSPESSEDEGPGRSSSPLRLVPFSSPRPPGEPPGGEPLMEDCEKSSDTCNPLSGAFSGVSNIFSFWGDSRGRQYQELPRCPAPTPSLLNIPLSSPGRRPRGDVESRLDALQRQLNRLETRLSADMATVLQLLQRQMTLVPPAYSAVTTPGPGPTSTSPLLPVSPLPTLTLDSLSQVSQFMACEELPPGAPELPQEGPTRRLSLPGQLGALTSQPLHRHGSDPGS
row,Structure (SMILES),"hERG current change (%, negative = inhibition) at 1uM [%]"
1,Cc1cc(C)cc(NC(=O)N(C)Cc2ccccc2)c1,17.5
2,CCOc1ccc(CC(=O)Nc2ccc(-c3ccc4nnc(C)n4n3)cc2)cc1,1.75
3,O=C(NNC1=C(C(=O)C(F)(F)F)CCC1)c1cccnc1,6.24
4,CCOC(=O)N1CCN(C(=O)CN(C2CCCCC2)S(C)(=O)=O)CC1,9.97
5,CCOc1ccc(NC(=O)C(=O)N/N=C\c2ccc(CNS(=O)(=O)c3ccccc3)o2)cc1,-2.54
6,Cc1ccc(C(=O)CCC(=O)N2CCN(C(=O)c3ccco3)CC2)cc1,-23.9
7,N/C(=N\OC(=O)Cc1cccs1)c1cccc([N+](=O)[O-])c1,6.08
8,O=C(NNc1cc(N2CCOCC2)nc(N2CCOCC2)n1)C12CC3CC(CC(C3)C1)C2,9.43
9,CCOc1ccc(/C=C\C(C)=N\O)cc1,12.6
10,Cc1ccc(NC(=O)c2ccc(Cl)nc2)cc1,13.4
11,O=C(Cc1nc2ccccc2s1)c1ccc(O)cc1O,6.12
12,CCOC(=O)C1CCN(S(=O)(=O)c2ccc(-c3nc4ccccc4s3)s2)CC1,4.56
13,O=C(Nc1ccc2nc3n(c(=O)c2c1)CCCCC3)c1ccccn1,3.03
14,Cc1cccc(NC(=O)Nc2ccc(OCc3ccccc3)cc2)n1,11.6
15,CC(C)NC(=S)N/N=C/c1c[nH]c2ccccc12,7.86
16,CCOC(=O)C1CCN(C(=O)CCNC(=O)c2cc(OC)c(OC)c(OC)c2)CC1,10.7
17,Oc1ccc(/C(Cc2ccc3ccccc3n2)=N\Nc2ccccc2)c(O)c1,20.6
18,Cc1ccc(-n2ncc(C(=O)NCc3ccc4c(c3)OCO4)c2NC(=O)c2ccco2)cc1C,4.3
19,COc1cccc(-n2c(/C=C/c3ccccn3)nc3ccccc3c2=O)c1,12.7
20,Cc1ccc(NS(=O)(=O)c2ccc(C(=O)N3CC(C)OC(C)C3)cc2)cc1 (centres unmarked),8.63
21,Cc1ccc(NCc2nnc(SCC(=O)c3ccccc3)n2Cc2ccco2)c(C)c1,8.86
22,Cc1c(Nc2nc(C(F)(F)F)nc3ccccc23)c(=O)n(-c2ccccc2)n1C,8.07
23,Cc1ccc2nc(Cl)c(/C=N/Nc3ccc(C(=O)O)cc3)cc2c1,13.9

row,Structure (SMILES),"hERG current change (%, negative = inhibition) at 1uM [%]"
1,COc1ccc(S(=O)(=O)N2CCCC(C(=O)NCC3CCCO3)C2)cc1Cl (centres unmarked),14.3
2,Nc1nonc1-n1nnc(C(=O)N/N=C/c2ccc(F)cc2)c1-c1ccc2c(c1)OCO2,-4.12
3,Cc1nn(Cc2ccc(C(=O)O)o2)c(C)c1[N+](=O)[O-],8.13
4,CCC(C)NC(=O)c1ccc(CN2CCc3ccccc3C2)cc1 (centres unmarked),11.9
5,COc1ccc(C(=O)Nn2c(C)nc3ccccc3c2=O)cc1OC,17.4
6,O=C(CSc1nc2c(c(=O)[nH]1)CN(Cc1ccc(F)cc1)CC2)Nc1ccc(F)cc1,-5.64
7,Cc1cccc(NC(=O)COC(=O)CNC(=O)C2CCCCC2)c1,3.25
8,c1coc(CNc2ncnc3c2oc2ccccc23)c1,2.39
9,O=C(Nc1ccccc1C(F)(F)F)c1ccc2nccnc2c1,14.9
10,O=C(NCC1CCCO1)/C(=C/c1ccccc1F)NC(=O)c1ccccc1 (centres unmarked),10
11,CCOC(=O)CNC(=O)CSc1nnc(-c2ccc(OC)cc2)n1CC,12
12,Cn1nnnc1SCC(=O)N1CCN(c2ccccc2)CC1,2.03
13,Cc1ccc(-n2c(CCc3ccccc3)nnc2SCC(=O)NCc2ccccc2)cc1C,9.84
14,COc1cc(OC)cc(C(=O)NC(C(=O)O)C23CC4CC(CC(C4)C2)C3)c1 (centres unmarked),10.7
15,C/C(=N\N1CCN(Cc2ccccc2)CC1)c1ccco1,8.67
16,S=C(NCCc1ccccc1)N1CCN(C23CC4CC(CC(C4)C2)C3)CC1,-22.1
17,S=C(Nc1cccc(Cl)c1)N(CCCN1CCCC1)Cc1cccn1Cc1ccc(Cl)cc1,1.06
18,Cc1cc(C)nc(NS(=O)(=O)c2ccc(N=Cc3c(C)[nH]n(-c4ccccc4)c3=O)cc2)n1,17.5
19,COc1ccccc1NC(=S)N1CCC(C(=O)c2ccc(F)cc2)CC1,6.18
20,COCCNC(=O)C1CCC(CNS(=O)(=O)c2ccc(F)cc2)CC1 (centres unmarked),11.3
21,Cc1ccc(NC(=O)CCCOc2ccccc2)cc1S(=O)(=O)N1CCOCC1,2.85
22,C#CC[N+]1(CC#Cc2cccc(C)c2)CCCCC1.[Br-],3.55
23,O=C(Nc1nc2ccc([N+](=O)[O-])cc2s1)c1c(F)cccc1F,7.94

row,Structure (SMILES),"hERG current change (%, negative = inhibition) at 1uM [%]"
1,CCCCCn1c(=O)c(C(=O)NCCc2ccccc2)c(O)c2ccccc21,20.5
2,O=C(C1CCCCC1)N1CCCC(c2nc(-c3ccc(F)cc3)no2)C1 (centres unmarked),9.37
3,CC1(C)CC(=O)C2=C(C1)Nc1ccccc1S2,12.2
4,Cc1cccn2c(=O)c(C(=O)NC3CC(C)CC(C)(C)C3)c(O)nc12 (centres unmarked),-11.4
5,O=C(Cc1ccccc1)NNC(=S)NC(=O)c1cccs1,13.4
6,O=C(Cc1ccc(Cl)cc1)Nc1ccc(NC(=O)c2cccs2)cc1,9.53
7,COc1ccc(C(=O)N2CCC(O)(c3ccc(F)cc3)CC2)cc1OC,-1.45
8,CCN1C(=O)CS/C1=N\S(=O)(=O)c1ccc(C)cc1,3.7
9,CCOc1ccc(S(=O)(=O)N2CCC(C(=O)NC3CC3)CC2)cc1Cl,7.65
10,O=C(CN1C(=O)S/C(=C\c2ccccc2)C1=O)NNC(=O)c1ccccc1O,7
11,CCOC(=O)CON1C(=O)c2ccccc2C1=O,10.5
12,O=C(O)CC(NC(=O)c1cccc(F)c1)c1ccc(OC2CCCC2)cc1 (centres unmarked),12.8
13,CCOC(=O)C1CCN(Cc2ccc3ccccc3c2)CC1,8.55
14,Clc1ccccc1CSc1cc2c(nn1)-c1ccccc1CC2,-8.69
15,COc1ccc(CN2CCN(C(=O)CCC(=O)c3ccc(C)s3)CC2)cc1OC,3.78
16,CSc1ccc(CNc2ccc(Cl)cc2)cc1,5.46
17,O=C(NCCC1=CCCCC1)c1cccc2c1C(=O)N(C1CCCCC1)C2,7.18
18,Nc1nn(S(=O)(=O)c2cccc3nsnc23)cc1-c1ccc(Br)cc1,11.4
19,CCSc1nnc(NC(=O)CN2C(=O)NC3(CCCC3)C2=O)s1,7
20,CCCCNc1c(-c2cccc(SC3CCCCC3)c2)nc2ccc(Cl)cn12.O=C(O)C(F)(F)F,-0.679
21,COC(=O)c1cccc(COC(=O)CNC(=O)c2ccco2)c1,21.1
22,O=S(=O)(c1ccccc1)N1c2cc(Cl)ccc2Oc2nc3ccccc3nc21,-3.11
23,CC(c1ccccc1)N1CCc2[nH]c(=S)[nH]c(=O)c2C1 (centres unmarked),10.9

row,Structure (SMILES),"hERG current change (%, negative = inhibition) at 1uM [%]"
1,COCc1nnc(NC(=O)CSCc2ccccc2)s1,14.5
2,CCOc1ccc(C(=O)CCC(=O)N(CC)CC(=O)NCc2ccc(Cl)cc2)cc1,-8.36
3,O=c1[nH]c2ccc(Cl)cc2c(O)c1-c1ccccc1,14.6
4,OCC1CCCCN1CCNCc1cn[nH]c1-c1cccc2ccccc12 (centres unmarked),2.34
5,CCC(C(=O)OCC(=O)Nc1ccc(F)cc1)c1ccccc1 (centres unmarked),-0.329
6,Cc1nc(N2CCCCC2)sc1C=O,16.2
7,COC(=O)C1=C(C)NC(C)=C(C(=O)OC)C1c1ccccc1OCc1c(C)no[n+]1[O-],-7.56
8,CC1CC(C)(C)NC(=S)N1CCCC(=O)Nc1ccc(F)cc1 (centres unmarked),11.6
9,CCCC(=O)N(Cc1cc(=O)[nH]c2ccccc12)c1ccc(C)cc1C,15.1
10,CC(=O)Nc1cccc(Oc2nc(C(F)(F)F)nc3ccccc23)c1,2.68
11,C=CCn1c2ccccc2c2nnc(SCC(N)=O)nc21,11.7
12,Cc1cc(C)cc(-n2cccc2/C=C2/C(=N)N3C(=NC2=O)SN=C3S(C)(=O)=O)c1,3.74
13,O=C(CSc1nccn1-c1ncc(C(F)(F)F)cc1Cl)c1ccc(Cl)cc1,10.6
14,Cn1c(Cc2ccccc2)nnc1SCc1cc(=O)n2ccsc2n1,37.2
15,Cc1ccc2nc(NC(=O)c3ccc(-c4nc5ccccc5s4)s3)sc2c1,10.3
16,CS(=O)(=O)Nc1ccc(C2=NN(C(=O)c3ccco3)C(c3cccc(F)c3)C2)cc1 (centres unmarked),-85.9
17,COc1ccccc1NC(=O)CC(=O)Nc1ccccc1OC,13.7
18,Cc1cccc(N(Cc2ccc(Cl)cc2)S(C)(=O)=O)c1,26.6
19,O=C(CNC(=S)N(CCCN1CCOCC1)Cc1cccs1)NC1CCCC1,2.77
20,C[C@@H](C(=O)NC1CCCCC1)N1C(=O)N2CCc3c([nH]c4ccccc34)[C@@]2(C)C1=O,6.3
